Results on six molecules are retold here after US20250122256A1 (TREX BIO, published 2025).

The target in assay [1] is T1, human TNFR1 (hTNFR1) (human, UniProt P19438 30-211, limits assumed).
T1 construct: Used in solution as the analyte over the immobilised fusion molecule in BLI; also called TNFR-p55
T1 sequence (looked up): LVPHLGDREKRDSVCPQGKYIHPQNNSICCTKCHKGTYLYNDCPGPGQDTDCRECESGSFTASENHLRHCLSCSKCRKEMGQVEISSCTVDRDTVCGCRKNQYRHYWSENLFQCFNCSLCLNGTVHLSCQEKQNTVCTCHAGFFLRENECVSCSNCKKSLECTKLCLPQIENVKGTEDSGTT
The experiment in a line: BLI, fusion molecule on anti-IgG Fc biosensor, hTNFR1 in solution, 30 C. How it is done: (§1) The binding affinity and selectivity of TNF-alpha variant fusion molecules for human TNFR2 (hTNFR2) and human TNFR1 (hTNFR1) receptors was analyzed by bio-layer interferometry (BLI). BLI binding studies were conducted using standard methods, where recombinant TNF-alpha variant fusion molecule was immobilized on the biosensor tip for experimentation. All experiments were performed at 30° C. with shaking at 1,000 r.p.m, and anti-IgG Fc biosensors were pre-equilibrated in K buffer, consisting of a 1/10 dilution of 0.2% BSA, 0.02% Tween20, 0.05% ProClin300 into PBS (138 mM NaCl, 2.7 mM KCl pH 7.4) for at least 300 seconds before use in experiments. 2 g/mL TNF-alpha variant fusion molecule was loaded onto anti-IgG Fc biosensors until a loading height of 0.6 nm was reached and flowed the difference in concentrations of hTNFR2 or hTNFR1, or buffer as control, for 200 seconds. Then both dissociate in K buffer for 400 seconds. Data was analyzed using standard methods. Calculated binding affinity is seen in Table 5.
For orientation: In BLI a coated tip is dipped into the sample, and binding shifts an interference pattern.

Assay [2] has as its target T1, human TNFR1 (hTNFR1). The assay is described as follows: BLI, ratio of KD to wild-type fusion. The protocol:
as §1

Assay [3] concerns the target T2, human TNFR2 (hTNFR2) (human, UniProt P20333 23-257, limits assumed).
T2 construct: Used in solution as the analyte over the immobilised fusion molecule in BLI; also called TNFR-p75
T2 sequence (looked up): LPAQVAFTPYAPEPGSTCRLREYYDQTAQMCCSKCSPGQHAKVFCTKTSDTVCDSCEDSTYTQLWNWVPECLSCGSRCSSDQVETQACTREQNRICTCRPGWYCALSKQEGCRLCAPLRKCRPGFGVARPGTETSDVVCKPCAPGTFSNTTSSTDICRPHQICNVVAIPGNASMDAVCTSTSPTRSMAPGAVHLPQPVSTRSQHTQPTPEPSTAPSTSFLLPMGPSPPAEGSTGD
The assay is described as follows: BLI, ratio of KD to wild-type fusion. The protocol: as §1

In assay [4] the target is T2, human TNFR2 (hTNFR2). The experiment in a line: BLI, fusion molecule on anti-IgG Fc biosensor, hTNFR2 in solution, 30 C. How it is done:
as §1

Assay [5] addresses T1, human TNFR1 (hTNFR1). The experiment in a line: BLI, fusion molecule on anti-IgG Fc biosensor, hTNFR1 in solution. The protocol:
as §1

B1: Variant 1 (D143N (C-term Fc) TNF-alpha variant fusion molecule) (Fc fusion)
chain: [here about 150 residues without letters]GGGGSSSRTPSDKPVAHVVANPQAEGQLQWLNRRANALLANGVELRDNQLVVPSEGLYLIYSQVLFKGQGCPSTHVLLTHTISRIAVSYQTKVNLLSAIKSPCQRETPEGAEAKPWYEPIYLGGVFQLEKGDRLSAEINRPDYLNFAESGQVYFGIIALGGGGSSSRTPSDKPVAHVVANPQAEGQLQWLNRRANALLANGVELRDNQLVVPSEGLYLIYSQVLFKGQGCPSTHVLLTHTISRIAVSYQTKVNLLSAIKSPCQRETPEGAEAKPWYEPIYLGGVFQLEKGDRLSAEINRPDYLNFAESGQVYFGIIALGGGGS[here human IgG1 Fc with C220S L234A L235A P331S (EU numbers) without letters]
The Kd is the equilibrium constant for the complex coming apart. Read a high Kd as weaker binding. Turning to B1, the figures for the Kd in the assay with human TNFR1 (hTNFR1) [1] and in the assay with human TNFR2 (hTNFR2) [4] were 3180 nM and 122 nM, respectively. For the same molecule, the “fold decrease in binding affinity against the wild-type TNF-alpha variant fusion molecule” value (shortened to “fold decrease in binding affinity”) with human TNFR1 (hTNFR1) [2] was determined as 416 fold; in the assay with human TNFR2 (hTNFR2) [3] it was 3.6 fold.

B2: Variant 5 (D143Y, A145G (C-term Fc) TNF-alpha variant fusion molecule) (Fc fusion)
chain: [here about 150 residues without letters]GGGGSSSRTPSDKPVAHVVANPQAEGQLQWLNRRANALLANGVELRDNQLVVPSEGLYLIYSQVLFKGQGCPSTHVLLTHTISRIAVSYQTKVNLLSAIKSPCQRETPEGAEAKPWYEPIYLGGVFQLEKGDRLSAEINRPDYLYFGESGQVYFGIIALGGGGSSSRTPSDKPVAHVVANPQAEGQLQWLNRRANALLANGVELRDNQLVVPSEGLYLIYSQVLFKGQGCPSTHVLLTHTISRIAVSYQTKVNLLSAIKSPCQRETPEGAEAKPWYEPIYLGGVFQLEKGDRLSAEINRPDYLYFGESGQVYFGIIALGGGGS[here human IgG1 Fc with C220S L234A L235A P331S (EU numbers) without letters]
notes: also called D143Y/A145G, C-terminal Fc; D143Y/A145G TNF-alpha variant fusion molecule
For the molecule B2, the binding result in the assay with human TNFR1 (hTNFR1) [5] is “no binding”. Also, the “fold decrease in binding affinity” value in the assay with human TNFR2 (hTNFR2) [3] came to 7.6 fold. Further, the Kd with human TNFR2 (hTNFR2) [4] turned out to be 258 nM.

B3: Variant 2 (A145R (C-term Fc) TNF-alpha variant fusion molecule) (Fc fusion)
chain: [here about 150 residues without letters]GGGGSSSRTPSDKPVAHVVANPQAEGQLQWLNRRANALLANGVELRDNQLVVPSEGLYLIYSQVLFKGQGCPSTHVLLTHTISRIAVSYQTKVNLLSAIKSPCQRETPEGAEAKPWYEPIYLGGVFQLEKGDRLSAEINRPDYLDFRESGQVYFGIIALGGGGSSSRTPSDKPVAHVVANPQAEGQLQWLNRRANALLANGVELRDNQLVVPSEGLYLIYSQVLFKGQGCPSTHVLLTHTISRIAVSYQTKVNLLSAIKSPCQRETPEGAEAKPWYEPIYLGGVFQLEKGDRLSAEINRPDYLDFRESGQVYFGIIALGGGGS[here human IgG1 Fc with C220S L234A L235A P331S (EU numbers) without letters]
For B3, the Kd with human TNFR1 (hTNFR1) [1] was 333 nM; with human TNFR2 (hTNFR2) [4], 67.6 nM. The “fold decrease in binding affinity” value with human TNFR1 (hTNFR1) [2] worked out at 43.5 fold; in the assay with human TNFR2 (hTNFR2) [3] it was 2 fold.

B4: Variant 3 (D143N, A145R (C-term Fc) TNF-alpha variant fusion molecule) (Fc fusion)
chain: [here about 150 residues without letters]GGGGSSSRTPSDKPVAHVVANPQAEGQLQWLNRRANALLANGVELRDNQLVVPSEGLYLIYSQVLFKGQGCPSTHVLLTHTISRIAVSYQTKVNLLSAIKSPCQRETPEGAEAKPWYEPIYLGGVFQLEKGDRLSAEINRPDYLNFRESGQVYFGIIALGGGGSSSRTPSDKPVAHVVANPQAEGQLQWLNRRANALLANGVELRDNQLVVPSEGLYLIYSQVLFKGQGCPSTHVLLTHTISRIAVSYQTKVNLLSAIKSPCQRETPEGAEAKPWYEPIYLGGVFQLEKGDRLSAEINRPDYLNFRESGQVYFGIIALGGGGS[here human IgG1 Fc with C220S L234A L235A P331S (EU numbers) without letters]
notes: also called D143N/A145R, C-terminal Fc
With B4, the binding result in the assay with human TNFR1 (hTNFR1) [5] is listed as “no binding”. In addition, the “fold decrease in binding affinity” value with human TNFR2 (hTNFR2) [3] was found to be 7 fold. In addition, the dissociation constant (Kd) with human TNFR2 (hTNFR2) [4] amounted to 238 nM.

B5: Variant 4 (D143N, A145R (N-term Fc) TNF-alpha variant fusion molecule) (Fc fusion)
chain: [here about 400 residues with a human IgG1 Fc without letters]GGGGSSSRTPSDKPVAHVVANPQAEGQLQWLNRRANALLANGVELRDNQLVVPSEGLYLIYSQVLFKGQGCPSTHVLLTHTISRIAVSYQTKVNLLSAIKSPCQRETPEGAEAKPWYEPIYLGGVFQLEKGDRLSAEINRPDYLNFRESGQVYFGIIALGGGGSSSRTPSDKPVAHVVANPQAEGQLQWLNRRANALLANGVELRDNQLVVPSEGLYLIYSQVLFKGQGCPSTHVLLTHTISRIAVSYQTKVNLLSAIKSPCQRETPEGAEAKPWYEPIYLGGVFQLEKGDRLSAEINRPDYLNFRESGQVYFGIIAL
notes: N-terminal IgG1 Fc L234A/L235A/P331S followed by a single-chain trimer of D143N/A145R TNF-alpha units; also called D143N/A145R, N-terminal Fc
Turning to B5, the binding result with human TNFR1 (hTNFR1) [5] is “no binding”. The “fold decrease in binding affinity” value with human TNFR2 (hTNFR2) [3] was 6.2 fold. In the assay with human TNFR2 (hTNFR2) [4], this molecule returned a Kd of 210 nM.

B6: Variant 6 (D143Y, A145G (N-term Fc) TNF-alpha variant fusion molecule) (Fc fusion)
chain: [here about 400 residues with a human IgG1 Fc without letters]GGGGSSSRTPSDKPVAHVVANPQAEGQLQWLNRRANALLANGVELRDNQLVVPSEGLYLIYSQVLFKGQGCPSTHVLLTHTISRIAVSYQTKVNLLSAIKSPCQRETPEGAEAKPWYEPIYLGGVFQLEKGDRLSAEINRPDYLYFGESGQVYFGIIALGGGGSSSRTPSDKPVAHVVANPQAEGQLQWLNRRANALLANGVELRDNQLVVPSEGLYLIYSQVLFKGQGCPSTHVLLTHTISRIAVSYQTKVNLLSAIKSPCQRETPEGAEAKPWYEPIYLGGVFQLEKGDRLSAEINRPDYLYFGESGQVYFGIIAL
notes: N-terminal IgG1 Fc L234A/L235A/P331S followed by a single-chain trimer of D143Y/A145G TNF-alpha units; also called D143Y/A145G, N-terminal Fc
In the case of B6, the binding result with human TNFR1 (hTNFR1) [5] is reported as “no binding”. The “fold decrease in binding affinity” value with human TNFR2 (hTNFR2) [3] came to 4.8 fold. Further, in the assay with human TNFR2 (hTNFR2) [4], the affinity, expressed as Kd, was 164 nM.
